Values joined by “and” are separate entries in the source; they are usually repeats but may differ in a detail not shown here. Equal values may be shown once. The whole screen tested about 270,000 compounds, of which about 5,800 (2.1%) were called active. Roughly 16% stayed inconclusive and do not appear here. The call rests on the fitted dose curve; in most records, active means well fitted inhibition curve with a large enough effect; inconclusive means small, poorly fitted or top-dose-only effect; inactive means flat fitted curve, though single readings scatter. The entries are a selection whose mix differs from that of the whole data set. A structure can be active in one record and inactive in another.
On the % scale 0 is the no-effect control and ±100 the full control effect; potency means the concentration at half of the fitted maximal effect.

Sequence of UniProt P10636 (P10636 whole entry, looked up, the tested form may be a part): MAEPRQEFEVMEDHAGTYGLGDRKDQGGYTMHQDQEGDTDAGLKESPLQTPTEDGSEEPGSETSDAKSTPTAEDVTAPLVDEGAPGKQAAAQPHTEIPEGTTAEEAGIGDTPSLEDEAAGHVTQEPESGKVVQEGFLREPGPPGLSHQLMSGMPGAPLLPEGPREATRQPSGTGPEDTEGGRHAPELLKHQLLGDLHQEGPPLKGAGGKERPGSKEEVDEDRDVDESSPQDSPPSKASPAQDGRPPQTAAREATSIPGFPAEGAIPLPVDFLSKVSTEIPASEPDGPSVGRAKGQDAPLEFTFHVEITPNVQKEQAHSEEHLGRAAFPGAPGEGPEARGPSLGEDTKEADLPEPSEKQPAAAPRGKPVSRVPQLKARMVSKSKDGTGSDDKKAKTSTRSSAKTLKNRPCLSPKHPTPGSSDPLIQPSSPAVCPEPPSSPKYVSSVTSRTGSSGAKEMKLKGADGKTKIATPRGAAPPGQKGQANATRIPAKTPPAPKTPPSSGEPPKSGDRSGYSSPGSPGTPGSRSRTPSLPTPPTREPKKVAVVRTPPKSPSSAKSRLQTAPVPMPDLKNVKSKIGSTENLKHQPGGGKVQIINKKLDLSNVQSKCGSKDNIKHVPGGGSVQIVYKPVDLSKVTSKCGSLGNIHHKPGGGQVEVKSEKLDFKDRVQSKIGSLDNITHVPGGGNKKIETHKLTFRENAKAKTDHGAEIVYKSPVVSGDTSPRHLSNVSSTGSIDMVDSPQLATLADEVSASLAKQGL

The target in this assay is Microtubule-associated protein tau (Homo sapiens) (UniProt P10636). Nature of the assay: qHTS for Inhibitors of Tau Fibril Formation, Thioflavin T Binding. Further: nearly all actives have a fitted effect of over 55% in size. Conditions: recombinant tau K18 P301L (four-repeat tau fragment), heparin-induced fibrillization, ThT fluorescence; series mostly up to 57.4 µM; activity, negative = inhibition: at the top concentration. An outline of the steps:
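K18 P301L tau (15 uM + 0.24 uM Alexa 594-tagged), heparin 20 uM, NaOAc pH 7, 6 h 37 C; ThT 30 uM, 1 h RT, ex 450/em 510 nm.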
(In general: In qHTS, concentration-response curves come from the screen itself.)
As to `COc1ccc(CCN2CCC(Nc3nc4ccccc4n3Cc3ccc(F)cc3)CC2)cc1`, the “activity, negative = inhibition” value is inactive: -20.4%. `COc1ccc(/C=C/C(=O)c2ccc(OC)cc2O)cc1`: the Potency was active: 5.01 µM. Still for that read-out and setting: the figure for `CC(=O)N1CCN(c2ccc(NCc3ccc(F)cc3)cc2)CC1` is active: 25.1 µM. As for `COC(=O)C1=C(C(=O)OC)[C@@H]2N(C)c3ccc(OC)cc3[C@@]23C[C@@H](C(=O)OC)N(S(=O)(=O)c2ccc([N+](=O)[O-])cc2)C3=N1`, the “activity, negative = inhibition” value is inactive: 4.42%. Regarding `C/C(CCC1CC(C)OC1=O)=N/Nc1nc(-c2ccccc2)cs1` (configuration not stated), the Potency is active: 28.2 µM.

Take `C=CCNC(=S)N1CCN(c2ccc([N+](=O)[O-])cc2)CC1`: the Potency is active: 12.6 µM.

Take `COc1ccc(/C=C2\CCC/C(=C\C=N\N(C)C)C2=O)cc1`: the Potency was active: 2.51 µM. With `C=C1CC[C@H](O)C/C1=C/C=C1\CCC[C@]2(C)[C@@H]([C@H](C)CCCC(C)(C)O)CC[C@@H]12`, the “activity, negative = inhibition” value was inactive: -10.1%. With `CCn1c(SCC(=O)N/N=C/C=C/c2ccccc2[N+](=O)[O-])nnc1-c1ccccc1`, the “activity, negative = inhibition” value was inactive: 0.802%. For `CC(C)N1CCc2c(sc(NC(=O)c3cc4cc([N+](=O)[O-])ccc4s3)c2C(N)=O)C1`, the Potency was active: 3.98 µM. On the same count and under the same terms, to `COc1cccc(-c2nc(NC(C)C)c3ccccc3n2)c1O` belongs active: 17.8 µM. As for `CCCCNC(=O)C(c1ccc(OCC(=O)OC)c(C(=O)OC)c1)N(CCOC)C(=O)CCCCCN1C(=O)NC(c2ccc(-c3ccccc3)cc2)C(C(=O)OCc2ccccc2)=C1C` (configuration not stated), the “activity, negative = inhibition” value is inactive: -7.12%. For the compound `CCC(C)C(=O)O[C@H]1C[C@@H](C)C=C2C=C[C@H](C)[C@H](CC[C@@H]3C[C@@H](O)CC(=O)O3)C21` (some centres not stated), the “activity, negative = inhibition” value was inactive: -7.23%. On to `COC(=O)[C@@]1(Cc2ccc(F)cc2)[C@H]2c3cc(C(=O)N(C)C)n(Cc4ccccc4)c3C[C@H]2CN1C(=O)c1ccccc1`, for which the “activity, negative = inhibition” value was inactive: -11%. With `CC1(C)C(O)CC[C@]2(C)C1CC[C@@]1(C)C2C(=O)C=C2[C@@H]3C[C@@](C)(C(=O)O)CC[C@@]3(C)CCC21C` (some centres not stated), the “activity, negative = inhibition” value is inactive: -8.37%.

On to `CS(=O)(=O)c1ccc(C(=O)NCCN2C(=O)S/C(=C\c3cccnc3)C2=O)cc1[N+](=O)[O-]`, for which the Potency is active: 15.8 µM. On the same count and under the same terms, the figure for `NC(=O)[C@@H]1[C@@H]2C(=O)N(c3ccc(F)cc3)C(=O)[C@@H]2[C@H]2C=Cc3ccccc3N21` is active: 14.1 µM. As to `COC(=O)CCC(=O)OC1(C)C(=O)C2=CN(CC(C)C)C(c3ccc(OC)cc3)=CC2=C(Br)C1=O` (configuration not stated), the activity, negative = inhibition was inactive: -5.88% [at 11.5 µM]. The same measure, in the same setting: the figure for `COC(=O)C1=C(C)N(CCc2cc(OC)c(OC)c(OC)c2)C(=O)N[C@H]1c1ccc(Br)cc1` is inactive: -3.53%. Consider `N/N=C(/Cc1nc2ccccc2[nH]1)c1ccc([N+](=O)[O-])cc1`, for which the Potency was active: 5.01 µM. For the compound `CNC(=O)c1cc2c(cn1)[nH]c1ccccc12`, the Potency entry is “inactive”. With `Cc1ccc2c(c1)C1C=CCC1C(C(=O)O)N2` (configuration not stated), the Potency was active: 14.1 µM. The same measure, in the same setting: the entry for `CCCNC(C)C(=O)Nc1ccccc1C` (configuration not stated) is “inactive”.

Take `CC1=C(C#N)C(=O)NC(=O)/C1=C/c1ccc(-c2ccc(S(N)(=O)=O)cc2)o1`: the Potency was active: 15.8 µM. As to `CC1(OC(=O)CCc2ccccc2)C(=O)C=C2C=C(c3ccc(C#N)cc3)N(C(CO)CO)C=C2C1=O` (configuration not stated), the activity, negative = inhibition was inactive: -18% [at 11.5 µM]. Take `CC(C)CN1C(=O)/C(=C(/C#N)C(=O)NC2CCCCC2)c2ccccc21`: the Potency is active: 17.8 µM. With `CC(=O)NCc1ccc(S(=O)(=O)NC(C(=O)O)C(C)C)cc1` (configuration not stated), the Potency was active: 25.1 µM. As for `Cc1ccc(OCC(O)Cn2c(=N)n(CCN3CCCCC3)c3ccccc32)cc1` (configuration not stated), the “activity, negative = inhibition” value was inactive: -9%.

As to `O=c1c(O)c(-c2ccc(O)c(O)c2)oc2c(OC3OC(CO)C(O)C(O)C3O)c(O)cc(O)c12` (configuration not stated), the Potency was active: 14.1 µM. For the compound `CC1=C(C#N)C(NC(=O)c2cccc(Cl)c2)(C(F)(F)F)C(=O)N1` (configuration not stated), the “activity, negative = inhibition” value is inactive: -1.44%. Still for that read-out and setting: the figure for `CO[C@@H]1COC(=O)C/C=C\[C@H](C)[C@@H](NS(=O)(=O)c2ccc(C)cc2)COC(=O)C/C=C\[C@@H]1C` is inactive: -5.14% [at 11.5 µM] and inactive: -10.7% [at 11.5 µM]. For `FC(F)(F)c1ccccc1-n1ccnc1`, the Potency result is “inactive”. On to `COc1cc2c(cc1OC)-c1cc(=Nc3c(C)cc(C)cc3C)n(C)c(=O)n1CC2`, for which the Potency entry was “inactive”.

For the compound `CC(=O)OCC1OC(Sc2cccc3cccnc23)C(OC(C)=O)C(OC(C)=O)C1OC(C)=O` (configuration not stated), the “activity, negative = inhibition” value is inactive: -9.57%. Take `CCOC(=O)c1sc(=S)n2c1[nH]c(=O)c1ccc(C(=O)OC)cc12`: the Potency was active: 7.08 µM. Take `CCN1CCN(c2cc3c(cc2F)c(=O)c(C(=O)O)cn3C2CC2)CC1`: the “activity, negative = inhibition” value is inactive: -2.69%.

Consider `O=C(NNc1cc(Br)c(O)c(Br)c1)c1ccccc1`, for which the Potency was active: 5.01 µM. In the case of `Cc1ccc(CSc2nnc(CCNC(=O)OC(C)(C)C)o2)cc1`, the “activity, negative = inhibition” value was inactive: -6.51%.

Take `CC1CCC2C(=O)OC(Cc3ccccc3)CN2C1c1ccc(Br)cc1` (configuration not stated): the activity, negative = inhibition was inactive: -14.4% [at 11.5 µM]. Regarding `C#C[C@@]1(O)CCC2C3CCc4cc(O)ccc4C3CC[C@@]21C` (some centres not stated), the “activity, negative = inhibition” value is inactive: -15.4%. Same read-out and setting: the figure for `CCc1ccc(NC(=O)CSc2nnc(CC)c(CC)n2)cc1` is inactive: -7.77%.

`COc1cccc(C(=O)Nc2ccc3nc(N4CCOCC4)cc(C)c3c2)c1`: the Potency is active: 5.01 µM. Consider `C[C@]12CC[C@@H]3c4ccc(O)cc4CC[C@H]3[C@@H]1CC[C@H]2O`, for which the “activity, negative = inhibition” value was inactive: -7.27%. As for `Cc1ccc(C(=O)Nc2cnc3ccccn3c2=O)cc1`, the “activity, negative = inhibition” value is inactive: -22.1%. With `CCC1=C(OC(=O)N(CC)CC)N2C(=O)OC(=NCCc3c[nH]c4ccccc34)[C@]2(Cc2ccccc2)[C@H]2C1=CC[C@H]1C(=O)N(C)C(=O)[C@H]12`, the “activity, negative = inhibition” value was inactive: -12.6%.

As for `COc1cccc(N2C(=O)CC(Nc3ccc(N4CCOCC4)cc3)C2=O)c1` (configuration not stated), the Potency is active: 14.1 µM. On the same count and under the same terms, to `O=C1/C(=C/c2ccc(C(=O)O)cc2)CCC/C1=C\c1ccc(C(=O)O)cc1` belongs active: 10 µM; to `O=C(N/N=C(\CC(=O)c1cccs1)C(F)(F)F)c1ccncc1`, active: 14.1 µM. On the same count and under the same terms, to `O=C1c2cccc3c(Nc4ccccc4Cl)c([N+](=O)[O-])cc(c23)C(=O)N1CCO` belongs active: 11.2 µM. Still for that read-out and setting: the figure for `O=C(O)c1ccc(Cl)c2c1C1C=CCC1C(c1ccccn1)N2` (configuration not stated) is active: 14.1 µM.

Regarding `COC(=O)c1ccc(C23CC4(C2)[C@H](CN(C)[C@@H]4c2ccccc2)C3c2ccc(Cl)nc2)cc1` (some centres not stated), the “activity, negative = inhibition” value was inactive: -13.1%.

Consider `O=C(NCc1ccccc1)c1ccc(-c2ccccc2C(F)(F)F)o1`, for which the “activity, negative = inhibition” value was inactive: -12.8%.

Values taken from PubChem BioAssay AID1460 (National Center for Advancing Translational Sciences (NCATS), 2008).
